# Values marked as one replicate rest on one cluster of the flow cell; about a third of the high ones do not repeat.
# Tested on: ATP
# Assay: switch fluorescence ratio, 500 uM ATP over buffer (Cy3 cluster intensity, sum of 5 cycles each) (fold (ratio)); higher = stronger signal-on switching upon ATP binding; sequences stand for … in TCGTCGGCAGCGTCAGATGTGTATAAGAGACAGTTTTTTTTTTTTTTTTTTTTTTTTT…TC
# Details: aptamer strand: ATP DNA aptamer (quencher-CACCTGGGGGAGTATTGCGGAGGAAGG + anchor), 100 nM annealed; ATP concentration: 500 uM; one replicate
# Summary of the method: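 Between each of five buffer/ATP cycles, the flow-cell was stripped with NaOH and re-annealed. Each cycle imaged Cy3-labelled switching-strand clusters, annealed to 100 nM quencher-labelled ATP aptamer on a modified Illumina MiSeq flow-cell, first in selection buffer and then after 15 min with 500 uM ATP at 22 °C. The fluorescence ratio is summed target-cycle over summed buffer-cycle Cy3 intensity per cluster, averaged per switch-domain sequence, with clusters outside 100-1000 RFU excluded.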
# 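Note: ATP exposure 15 min at 22 °C before imaging.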
row,Sequence,switch fluorescence ratio
1,ATGTTCTTTC,0.989
2,TGCGTACAGG,1.04
3,ATCAGTTCTT,1.01
4,AGGAAATGAA,1.03
5,ATTATAATAA,0.975
6,TGCAATGG,2.78
7,GCACCGCAGT,1.67
8,GTTATCTGGA,0.906
9,TGCTCAAGCT,1.01
10,ACCGCGAATT,1.36
11,ATATGGAGAG,1.03
12,TTAATCAGAC,1.05
13,CTAGTCTTTG,0.981
14,GGGTGTCCGT,1.01
15,ACATGATTAC,1.11
16,TCATGACGCT,0.976
17,TAGTAACCCG,1.07
18,TTCACGATAT,1.13
19,ATTTGGTGCC,1
20,GGCATTGGAG,0.988
21,AGCGCATACT,2.47
22,ACTGTTTTAG,1.08
23,TAACTCCTGC,1.08

row,Sequence,switch fluorescence ratio
1,CGAATCCTCT,1.01
2,CGCAAAGAGT,1.21
3,TCCAACGGTT,1.08
4,GTGTAAACCG,1.05
5,TAGCTGGTGG,0.907
6,ATTGATGCCG,0.974
7,CGTACATGA,1.01
8,TAGATCCGCG,1.07
9,CGTTACTGTT,0.971
10,TGGCGGCGGT,0.973
11,TCCATCGGTC,1.02
12,AAGAAATCCC,1.07
13,CGTTTTTCGC,1.04
14,AAGGTAACCG,1.02
15,AATTGGAGGT,0.999
16,GCGTTGTGAG,1.01
17,GATGGCACCC,1.25
18,TCTTCATTTA,1.03
19,CATGTAAATG,1.03
20,GCTAATCCGG,0.987
21,AAAACCACGG,1.4
22,CGAGTGGAGC,1.02
23,CGACGTGCC,1.11

row,Sequence,switch fluorescence ratio
1,TCCGATTGTT,1.27
2,GATTTCGTGT,1
3,CCTTCGGCCC,4.19
4,TTGCGACTAA,0.967
5,AATGCCAGGC,0.993
6,CTTGGCTCTA,0.969
7,GTTAAGGTAG,0.987
8,GTGATTTGGA,0.981
9,ATTCGCGTA,1.04
10,CGGCAAAGCG,0.998
11,CGATATGCCC,0.992
12,CGCGTATATG,1.04
13,GCACACATGA,1.01
14,CGTTAGTTTG,1.02
15,TGTTCAAT,1.03
16,GCTCCGGAGG,1.02
17,TTCTCATGCT,0.996
18,GCTGATGGCG,1.02
19,CTCCACCGGT,1.55
20,AGTTTGTCGA,0.98
21,TGCTTCTCGG,0.987
22,GCGGTTGGCA,0.991
23,TAAAGAGAGT,1.08

row,Sequence,switch fluorescence ratio
1,TGCCATACG,1.13
2,GAAAACAGCG,1.05
3,ATTCTTGGCA,0.986
4,TAGTTTGCGT,0.985
5,CTAACCAGTT,0.971
6,TTTCTTTGGA,1.01
7,GACCCTTGTT,1.04
8,CGGTTAGGGT,0.987
9,GGGCGTAGAC,0.973
10,ACGTCTGAGT,0.993
11,AACTCTATCG,1.03
12,ACTGTCCCCT,1.01
13,TTTATGACAC,0.97
14,ATGTAGACCC,0.961
15,AGTTGATGGA,0.977
16,CAGTTTACAG,1.01
17,GGGGGTCAT,0.998
18,GCCATACGG,1.02
19,GTAGGTCCAG,0.992
20,CAAACATACT,1.35
21,AAGAGGTTGT,0.954
22,TGTCCTTGTT,0.969
23,ACCTCATCT,0.998

row,Sequence,switch fluorescence ratio
1,GCTTCAACAT,1.03
2,GCTGCTTTTG,1.06
3,ACCATAGCTG,1.11
4,GCCGCTACGT,1.08
5,ATTTTTACGT,1
6,GCGGGGCGA,1.02
7,ATAAGATCAC,1.06
8,ATTACGCTTA,1.15
9,TAAAAAGTTG,1.12
10,TATATTCAGG,1.01
11,GCAAGAGCGA,1.02
12,CACCGTACGA,1.6
13,TGAGTTCTGT,0.94
14,CTGCTGAAGA,1.05
15,ACTGCTGGAA,0.988
16,AACGAACTC,1.31
17,ACGATGTGG,0.998
18,GATTGCAG,0.992
19,TTAGGCTC,0.967
20,GTAATGGGGC,0.985
21,TCAGCAGTGG,1.92
22,TTGCATTCTG,1.02
23,GGTCTTGGT,0.99

row,Sequence,switch fluorescence ratio
1,CCGGATTAGG,0.995
2,ACGTATAGGG,1.13
3,TACAGCCATT,1.07
4,CATGCCATTC,1.02
5,CTCACGATAT,1.34
6,CGGCAATTTG,1.04
7,ACTCAGGGTT,1.01
8,GTTTGGGCAA,1.04
9,ATAGGATTGA,1
10,TAAAAGACA,0.997
11,GACCAAATAG,1.07
12,CGGTTAATGT,1
13,ACGGGCGTCG,1.03
14,TGGTATTACG,1.01
15,TGTCAATCGG,0.969
16,TTGAGATGCG,0.976
17,TAAAGTGCGC,1.03
18,GTGGGAGGCA,1.04
19,TTATCTAAAG,1.02
20,CGGGTCGGTG,0.966
21,TCAGTGGGCG,0.906
22,GCTTTTATTT,0.994
23,GGGAAACGTT,1.04

row,Sequence,switch fluorescence ratio
1,TGGGATGAA,1.04
2,TGACGTAGCG,0.969
3,ACAAAGGACA,1.03
4,TGGCCCATCC,1.02
5,TCGATATGCT,1.03
6,TGTAAGGGCA,1.02
7,CAACTGAGTA,1.02
8,CAGCTACGCC,0.995
9,CAGTGTCCTG,0.953
10,ACGACGGAAA,1.31
11,TCTTGATGTA,1
12,GTCCGCTTAG,2.96
13,AATGTATATG,0.978
14,TGGGTCCCTG,1.05
15,ATTATCAGCT,1.03
16,GCAGTTGGCG,0.999
17,AGCGGAAAGG,1.03
18,ATCGCGCACT,1.09
19,ATCTTCAAT,0.991
20,AACGTGGGGT,0.983

# — the supplement of paper PMC10126150
